Mortality data for 33 compounds are collected here from patent publication US8586505B2 (SDS Biotech K. K., priority 2009, dated 2013).

This experiment has as its system Aphis gossypii. The experiment can be described thus: whole plant or invertebrate. The settings on record: in Cucumis sativus, 48 h, read-out: Determination (mortality rate). As to the method:
A cucumber leaf section having a diameter of 3 cm was placed on a wet sponge in a plastic cup. Thereafter, five female adults of Aphis gossypii were released into the plastic cup, and they were then left at rest overnight. Thereafter, the number of new-born larvae was counted. 0.4 ml each of an agent solution prepared by diluting a 10% wettable powder of each compound shown in Table 1 to a concentration of 250 ppm was sprayed thereto. Two days later, the number of deaths was counted, and the mortality rate was then calculated.

Structures are written as SMILES. A value given as a limit tells only on which side of the number the result lay.

The mortality is the share of the test organisms that died.

`CC(CC#Cc1ccccc1CO)Nc1ncnc2sccc12` (stereo not drawn) [compound 243]: the mortality at 250 ppm was greater than 95%. As for `CC(CC#Cc1ccc(F)cc1CO)Nc1ncnc2sccc12` (stereo not drawn) [compound 244], the figure is greater than 95%; as for `CC(CC#Cc1ccc(Cl)cc1CO)Nc1ncnc2sccc12` (stereo not drawn) [compound 245], greater than 95%. As for `CC(CC#Cc1ccc(F)cc1Cl)Nc1ncnc2sccc12` (stereo not drawn) [compound 247], the figure is 80 to 95%. As for `CC(CC#Cc1cc(F)ccc1C(F)(F)F)Nc1ncnc2sccc12` (stereo not drawn) [compound 248], the figure is greater than 95%; as for `CC(CC#Cc1c(Cl)cccc1Cl)Nc1ncnc2sccc12` (stereo not drawn) [compound 251], greater than 95%. Turning to `CC(CC#Cc1c(Cl)cccc1C(F)(F)F)Nc1ncnc2sccc12` (stereo not drawn) [compound 252], the mortality at 250 ppm was greater than 95%. `CC(CC#Cc1ccc(Cl)c(C(F)(F)F)c1)Nc1ncnc2sccc12` (stereo not drawn) [compound 254]: the mortality at 250 ppm lay in the range of 80 to 95%.

As for `Cc1ccc(C#CCC(C)Nc2ncnc3sccc23)c(Cl)c1` (stereo not drawn) [compound 255], the mortality at 250 ppm was greater than 95%. As for `CC(CC#Cc1ccc(S(C)(=O)=O)cc1Cl)Nc1ncnc2sccc12` (stereo not drawn) [compound 256], the mortality at 250 ppm was greater than 95%. As for `CC(CC#Cc1ccc(C#N)cc1C(F)(F)F)Nc1ncnc2sccc12` (stereo not drawn) [compound 260], the figure is greater than 95%; as for `CC(CC#Cc1c(Cl)cc(F)cc1Cl)Nc1ncnc2sccc12` (stereo not drawn) [compound 261], greater than 95%; as for `CC(CC#Cc1nccs1)Nc1ncnc2sccc12` (stereo not drawn) [compound 265], greater than 95%. As for `Cc1nc(C#CCC(C)Nc2ncnc3sccc23)cs1` (stereo not drawn) [compound 266], the figure is greater than 95%.

Consider `CCCCC(CC#Cc1ccccc1)Nc1ncnc2sccc12` (stereo not drawn) [compound 269], for which the mortality at 250 ppm is 60 to 80%. With `CC(CC#Cc1ccccc1)Nc1ncnc2ccccc12` (stereo not drawn) [compound 270], the mortality at 250 ppm is greater than 95%. The result for `CC(CC#Cc1ccccc1Cl)Nc1ncnc2ccccc12` (stereo not drawn) [compound 272] reads greater than 95%.

With `CC(CC#Cc1ccccc1C(F)(F)F)Nc1ncnc2ccccc12` (stereo not drawn) [compound 274], the mortality at 250 ppm is greater than 95%. The result for `COc1ccccc1C#CCC(C)Nc1ncnc2ccccc12` (stereo not drawn) [compound 276] reads 80 to 95%; that for `CC(CC#Cc1ccc(C(F)(F)F)cc1C(F)(F)F)Nc1ncnc2ccccc12` (stereo not drawn) [compound 280], greater than 95%; that for `CC(CC#Cc1ccc(Cl)c(C(F)(F)F)c1)Nc1ncnc2ccccc12` (stereo not drawn) [compound 284], 80 to 95%. As for `COc1ccc(C#CCC(C)Nc2ncnc3ccccc23)c(C(F)(F)F)c1` (stereo not drawn) [compound 287], the figure is greater than 95%; as for `Cc1nc(C#CCC(C)Nc2ncnc3ccccc23)cs1` (stereo not drawn) [compound 292], greater than 95%; as for `CCC(CC#Cc1ccc(F)cc1)Nc1ncnc2ccccc12` (stereo not drawn) [compound 294], greater than 95%.

Turning to `CC(C)C(CC#Cc1ccccc1)Nc1ncnc2ccccc12` (stereo not drawn) [compound 298], the mortality at 250 ppm is greater than 95%. The result for `OCC(CC#Cc1ccccc1)Nc1ncnc2ccccc12` (stereo not drawn) [compound 299] reads greater than 95%. The result for `C#CCC(Nc1ncnc2ccccc12)c1ccccc1` (stereo not drawn) [compound 300, 4-[(1-Phenyl-3-butynyl)amino]quinazoline] reads greater than 95%; that for `Fc1cccc2c(NCCC#Cc3ccccc3C(F)(F)F)ncnc12` [compound 306], greater than 95%; that for `FC(F)(F)c1ccccc1C#CCCNc1ncnc2c(Cl)cccc12` [compound 307], 60 to 80%. As for `FC(F)(F)c1ccccc1C#CCCNc1ncnc2ccc(Cl)cc12` [compound 309], the figure is 60 to 80%; as for `FC(F)(F)c1ccccc1C#CCCNc1ncnc2cccc(Cl)c12` [compound 310], 80 to 95%; as for `COCc1ccccc1C#CCCNc1ncnc2c(Cl)cccc12` [compound 311], 60 to 80%. Consider `COCc1ccccc1C#CCCNc1ncnc2cc(Cl)ccc12` [compound 312], for which the mortality at 250 ppm was greater than 95%.
